Source: the supplement of paper PMC12217912
The list shows a part of the results. Sequences were assembled here from the parent chain. Values near 0.05 are background.

B1: TEV protease; numbered along this chain (parent)
chain: MGESLFKGPRDYNPISSSICHLTNESDGHTTSLYGIGFGPFIITNKHLFRRNNGTLVVQSLHGVFKVKDTTTLQQHLVDGRDMIIIRMPKDFPPFPQKLKFREPQREERICLVTTNFQTKSMSSMVSDTSCTFPSGDGIFWKHWIQTKDGQCGSPLVSTRDGFIVGIHSASNFTNTNNYFTSVPKNFMELLTNQEAQQWVSGWRLNADSVLWGGHKVFMVKPEEPFQPVKEATQL

Variants of: B1
Test: raw area under fraction-flipped curve 0-4 h after induction (AUC4h, not background-subtracted), DNA-recorder readout of cleavage of the substrate (dimensionless); higher = more cleavage of the substrate by the protease variant
Conditions: temperature: 34 °C; time window: 0-4 h after rhamnose induction
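Also: Bxb1 expression induced with 0.2% (w/v) L-rhamnose at OD600 near 0.5, cultures sampled hourly, flipped fraction per protease–substrate barcode pair counted by paired-end Illumina sequencing.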

| Variant | area with substrate ENLYFDS | area with substrate ENLYFES | area with substrate ENLYFFS | area with substrate ENLYFIS | area with substrate ENLYFKS | area with substrate ENLYFMS | area with substrate ENLYFPS | area with substrate ENLYFRS | area with substrate ENLYFSS | area with substrate ENLYFTS | area with substrate ENLYFVS | area with substrate ENLYFWS | area with substrate ENLYFHS | area with substrate ENLYFCS | area with substrate ENLYFGS | area with substrate ENLYFNS | area with substrate ENLYFYS | area with substrate ENLYFLS |
| --- | --- | --- | --- | --- | --- | --- | --- | --- | --- | --- | --- | --- | --- | --- | --- | --- | --- | --- |
| R10E | 0.0408 | 0.0652 | 0.0635 | 0.0642 | 0.0585 | 0.0655 | 0.063 | 0.0666 | 0.0725 | 0.0469 | 0.0587 | 0.0539 | – | – | – | – | – | – |
| D82R | – | 0.0593 | – | 0.0674 | – | 0.0561 | 0.0555 | 0.0556 | 0.0666 | – | – | – | 0.0589 | – | – | – | – | – |
| G162S | – | 0.0561 | 0.0746 | 0.0589 | 0.0524 | 0.0489 | 0.057 | 0.0689 | – | 0.0537 | 0.0681 | 0.0719 | – | 0.0656 | 0.038 | 0.0614 | 0.0421 | – |
| D161S | – | 0.0533 | – | 0.0464 | 0.0671 | 0.0577 | 0.053 | 0.0501 | – | – | – | – | 0.0719 | 0.0553 | 0.0556 | – | – | 0.0702 |
| L191M | 0.0617 | 0.0667 | 0.0656 | 0.0555 | 0.0576 | 0.0628 | 0.0741 | 0.0619 | – | 0.0614 | 0.0598 | 0.0671 | 0.0714 | 0.0272 | – | 0.0614 | 0.0562 | – |
| G153P | 0.0561 | 0.046 | 0.051 | – | 0.0601 | – | 0.0455 | 0.0526 | – | 0.0531 | 0.0386 | – | – | 0.049 | 0.0405 | – | – | 0.0517 |
| V229I | – | 0.0492 | – | 0.0586 | 0.0533 | 0.0701 | 0.0629 | 0.0619 | – | 0.0668 | – | 0.0553 | – | 0.0526 | 0.0567 | – | – | – |
| Q194L | 0.0491 | 0.0547 | 0.0832 | – | – | 0.0818 | 0.0504 | 0.0606 | 0.05 | 0.0618 | – | 0.0639 | – | 0.0647 | – | 0.0621 | 0.0494 | – |
| D128V | 0.0953 | 0.0662 | 0.0677 | 0.0488 | – | 0.0617 | 0.0526 | – | 0.05 | 0.0891 | – | 0.0528 | 0.0647 | – | – | – | 0.0594 | – |
| F38G | 0.0428 | – | – | – | – | – | 0.0342 | – | – | 0.0522 | 0.0654 | – | – | – | – | 0.0527 | – | – |
| A207N | 0.0603 | 0.0646 | 0.0638 | 0.0663 | 0.0645 | 0.0598 | 0.0648 | 0.0608 | – | 0.0543 | – | 0.0504 | 0.0648 | 0.0723 | – | – | – | 0.05 |
| A207P | 0.0523 | 0.0588 | 0.0742 | – | – | – | – | – | – | – | – | 0.0659 | 0.0509 | – | – | 0.0374 | 0.0555 | – |
| Q234F | 0.0454 | – | – | 0.0522 | 0.0554 | 0.0733 | 0.0683 | 0.0605 | 0.0606 | – | – | 0.0751 | – | 0.0733 | 0.0715 | 0.0547 | 0.0492 | – |
| H62W | – | 0.0788 | 0.0713 | 0.0522 | 0.0576 | 0.0711 | 0.0616 | 0.0722 | 0.045 | 0.0653 | – | 0.0708 | – | – | 0.0651 | 0.0603 | – | 0.0458 |
| F6Y | – | 0.0623 | – | – | – | 0.0436 | – | – | – | – | 0.0589 | – | 0.0499 | – | – | 0.0624 | 0.0535 | – |
| P225D | – | – | 0.0654 | 0.062 | 0.0585 | 0.0551 | 0.06 | 0.0574 | – | – | 0.0413 | – | – | 0.0582 | – | – | 0.0451 | – |
